# Results: the BET-seq Pho4 binding data (Le et al. 2018)
# Some of the results follow. These are noisy estimates, calculated here from bound and input reads.
# Target: T1, Pho4 (S. cerevisiae) (UniProt P07270)
# T1 sequence: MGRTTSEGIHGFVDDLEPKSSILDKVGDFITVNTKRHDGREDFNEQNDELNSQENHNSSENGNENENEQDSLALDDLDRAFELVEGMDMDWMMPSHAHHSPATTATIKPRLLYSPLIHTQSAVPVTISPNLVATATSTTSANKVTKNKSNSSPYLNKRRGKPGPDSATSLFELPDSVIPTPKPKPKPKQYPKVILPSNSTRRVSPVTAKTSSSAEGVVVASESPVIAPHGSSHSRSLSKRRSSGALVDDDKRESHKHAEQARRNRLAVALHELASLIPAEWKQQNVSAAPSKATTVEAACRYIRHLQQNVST
# Experiment: relative binding free energy (BET-seq); higher = weaker binding
# Conditions: reference: library average
row,Sequence,relative binding free energy [kcal/mol]
1,TGTATCACGTGTAAGA,0.21
2,TAGATCACGTGGTGGG,0.11
3,AGTCTCACGTGTGGGT,0.13
4,TAAGACACGTGTGAGT,0.09
5,GAGGACACGTGTTGGG,0.16
6,CGGGACACGTGAGTCG,0.32
7,TGTTTCACGTGCGATC,0.36
8,TATTTCACGTGAGTTT,0.45
9,TTGGACACGTGAGCGT,0.24
10,TGGTACACGTGGGCGG,-0.09
11,AGTTGCACGTGATGTC,0.15
12,TGTTGCACGTGCTTTG,0.04
13,TGGGGCACGTGTTCAA,-0.16
14,GACGTCACGTGTGTAG,0.2
15,AGTGGCACGTGCGAAG,-0.15
16,ATGTGCACGTGAAATG,0.16
17,AATAGCACGTGTATAT,0.07
18,ATGATCACGTGTGGGT,0.24
19,TAAATCACGTGTTTTA,0.1
20,TGTAGCACGTGATATA,0.08
21,CGAATCACGTGTTGTG,0.01
22,GGTAACACGTGGAGGT,0.11
23,CTTATCACGTGGTATA,0.07
24,GATGTCACGTGAACGG,0.45
25,GGCATCACGTGAAGTG,0.39

row,Sequence,relative binding free energy [kcal/mol]
1,GTTTGCACGTGCACTT,0.1
2,GTGGGCACGTGATATA,-0.05
3,TGTTGCACGTGTAGAG,0.21
4,CGGGGCACGTGGTGCG,-0.29
5,AGGGTCACGTGTTGCC,0.14
6,GTTTACACGTGGTGCA,0.02
7,GAAGTCACGTGACGGT,0.2
8,TTGAGCACGTGTGGAC,-0.03
9,ATTGGCACGTGGGGTC,-0.28
10,TGTAGCACGTGTTTGC,-0.02
11,CGACGCACGTGTGGTG,-0.07
12,GAGTTCACGTGAGATG,0.51
13,TTGGCCACGTGATTGT,0.07
14,ATTAGCACGTGGGTCG,-0.45
15,TGGGTCACGTGTGCTG,0.12
16,ATGTACACGTGAGGCG,0.41
17,TAAGGCACGTGACTGT,-0.01
18,TGGCACACGTGTATGG,0.01
19,ATGCGCACGTGGGTCT,-0.33
20,GCGTTCACGTGGTATG,0.33
21,AGACGCACGTGTTGTG,-0.12
22,GGATTCACGTGGGAGG,0.01
23,GATAGCACGTGGGAGT,-0.16
24,GCGGGCACGTGGCGTG,-0.19
25,GGCGGCACGTGCTGGC,-0.09

row,Sequence,relative binding free energy [kcal/mol]
1,TGTTGCACGTGCGAAG,-0.05
2,TTCGACACGTGATGTG,0.01
3,CTTTGCACGTGGACTG,-0.01
4,CGTATCACGTGGGTAG,0.04
5,TTAGGCACGTGCAATT,-0.11
6,TTCGGCACGTGGGGGA,-0.28
7,AATGACACGTGAGTTT,0.25
8,GTTGTCACGTGCTATA,0.17
9,TTGTCCACGTGTAATT,0.1
10,CGTTCCACGTGTAGGG,0.06
11,TGTCGCACGTGTTGCG,-0.07
12,ATAGTCACGTGTTTCA,0.14
13,TGGTTCACGTGTTTAT,0.38
14,GGTGCCACGTGGCGTG,-0.07
15,TTGGGCACGTGGGTAA,-0.19
16,ATATACACGTGATTTA,0.19
17,GCTGGCACGTGTGTAA,-0.11
18,GGGATCACGTGAAGCT,0.5
19,GCTGTCACGTGATAGG,0.24
20,ATAAACACGTGAGTGT,0.22
21,TAGATCACGTGGGCGA,0
22,CGTTTCACGTGTAGGA,0.2
23,GTAGGCACGTGTCGGG,-0.14
24,GGTGACACGTGTGGTG,0.03
25,TTGTGCACGTGTCTTG,0.13

row,Sequence,relative binding free energy [kcal/mol]
1,TTTAGCACGTGTATGA,-0.07
2,TCTGTCACGTGCTGTG,0
3,GGTAACACGTGATTAG,0.15
4,TTGGACACGTGCAAGG,0.21
5,GTGAACACGTGAGGTG,0.19
6,ATTTTCACGTGTGGTG,0.26
7,GTGTTCACGTGAATTC,0.43
8,TGTGTCACGTGAGGGA,0.39
9,GGGAACACGTGAGCGG,0.3
10,GTGGTCACGTGCGAGG,0.08
11,TGGTTCACGTGTCGAA,0.18
12,TGAGGCACGTGAGCGG,0.05
13,ATCGTCACGTGTTGAT,0.15
14,TATGGCACGTGCAGTG,-0.11
15,GCAATCACGTGGTGGG,0.04
16,ATCTACACGTGTTGGG,0.03
17,TCTCTCACGTGTGGTT,0.24
18,ATTTTCACGTGGCTGG,0.22
19,CATGTCACGTGGGTAT,-0.09
20,GTAAGCACGTGGGGTC,-0.16
21,GTCTTCACGTGCGTTG,0.17
22,CATAGCACGTGAAGGT,0.23
23,GTTCGCACGTGCAGTG,0.01
24,AGGTACACGTGTGGTT,0.09
25,GGTTACACGTGCGCGG,-0.02

row,Sequence,relative binding free energy [kcal/mol]
1,CGTGGCACGTGAGGCT,0.1
2,TAAGGCACGTGAATTA,0.19
3,AGATGCACGTGGAAGT,-0.03
4,ATTCTCACGTGTATGA,0.27
5,GTAGACACGTGTAGAG,0.03
6,TTGCTCACGTGTGTGC,0.13
7,AAGTGCACGTGGGTGA,-0.16
8,ATAGCCACGTGGGTGT,-0.19
9,ATGCTCACGTGGCGGT,0.12
10,GATATCACGTGGATGT,0.11
11,AGTTGCACGTGTTTTA,0.01
12,TTTATCACGTGCGGGA,0.1
13,AGTGGCACGTGTCGTA,-0.12
14,ATGGTCACGTGATGGC,0.13
15,CGGCTCACGTGAGGTT,0.43
16,CGGGTCACGTGGTGTC,0.05
17,TAAATCACGTGGGTGA,0.06
18,CATGTCACGTGTATTT,0.06
19,CTGTACACGTGTTATG,0.05
20,TGTAGCACGTGTGGAT,-0.05
21,CTGGGCACGTGTTAAG,-0.15
22,ATAGCCACGTGTTTGA,0.01
23,GTTGTCACGTGGGGCA,-0.01
24,TGGGACACGTGGTGCA,-0.08
25,GGTCGCACGTGGTGAA,-0.15

row,Sequence,relative binding free energy [kcal/mol]
1,GCAGGCACGTGGTAAG,-0.06
2,CGGGGCACGTGAAGGA,0.12
3,GATGACACGTGGCGAT,0.09
4,GGATGCACGTGGCGGG,-0.06
5,TATGTCACGTGAGACA,0.39
6,TAACTCACGTGTTCGT,0.39
7,TGATTCACGTGTACGA,0.38
8,TGGTTCACGTGGAAAG,0.43
9,GGGTGCACGTGAATTG,0.3
10,TGGGGCACGTGGATAT,-0.09
11,TTTTACACGTGCGGAG,0.15
12,GTAGTCACGTGAAGGT,0.36
13,TTGGACACGTGGGAGC,-0.11
14,ATTTGCACGTGTATAA,-0.1
15,TGTATCACGTGGCTGG,0.15
16,GGGGTCACGTGGGCAT,0.04
17,GTGCTCACGTGGAGTG,0.2
18,TGGGTCACGTGTCCGG,0.14
19,GGCTCCACGTGTTGTG,0.1
20,GGTTGCACGTGTGTTC,0.13
21,CGTTTCACGTGCATTG,0.2
